Data published in PubChem BioAssay AID651813 (National Center for Advancing Translational Sciences (NCATS), 2012).
Several values for one entry are separate records, joined by “and”; a condition that tells them apart may be missing. Equal entries are not always repeated. Among all 2,100 compounds or so, about 1,100 (52%) were called active. So high a share suggests a set chosen from earlier hits. Inconclusive means that the source gave no clear call. Such entries were picked first, then a sample of the others. Calls come from the whole dose curve; as a rule, active = well fitted inhibition curve with a large enough effect; inconclusive = small, poorly fitted or top-dose-only effect; inactive = no such curve, though single readings can be large or run the other way. Where the call is inconclusive, the potency comes from a doubtful curve fit.

Target: DNA dC->dU-editing enzyme APOBEC-3G (Homo sapiens) (UniProt Q9HC16)
UniProt Q9HC16, sequence (Q9HC16 whole entry, looked up): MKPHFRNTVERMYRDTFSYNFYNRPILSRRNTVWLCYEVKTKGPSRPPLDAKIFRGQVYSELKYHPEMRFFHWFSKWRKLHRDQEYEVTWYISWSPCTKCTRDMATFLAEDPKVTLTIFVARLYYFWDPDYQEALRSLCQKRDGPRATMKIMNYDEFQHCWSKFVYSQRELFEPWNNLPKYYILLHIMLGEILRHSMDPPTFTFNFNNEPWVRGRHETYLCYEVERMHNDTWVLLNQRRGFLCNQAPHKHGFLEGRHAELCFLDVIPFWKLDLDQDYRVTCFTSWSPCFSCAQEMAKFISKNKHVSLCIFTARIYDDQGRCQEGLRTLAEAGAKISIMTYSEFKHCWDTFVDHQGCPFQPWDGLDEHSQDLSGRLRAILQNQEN
Assay: qHTS for inhibitors of Vif-A3G interactions: Cherry picks counterscreen;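 note: hits raise yellow fluorescence by blocking Vif-driven A3G-eYFP degradation; nearly all actives have a fitted effect of over 70% in size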;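 for max response: max response given as percent of control signal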
Conditions: HeLa A3G-eYFP + Vif (tagged APOBEC3G with the HIV-1 protein that degrades it), eYFP fluorescence, 24 h
Method in brief: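 HeLa cells stably expressing A3G-eYFP and Vif were treated for 24 h at 37 deg C with compounds at several concentrations; yellow fluorescence (Ex 488 nm, Em 500-530 nm) read by Acumen Explorer, MG132 as positive control.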
Potency is the fitted concentration of half-maximal effect; tags give direction and shape of the fitted curve.

Compound | Potency | max response
O=C1c2ccccc2-c2nc3ccccc3cc21 | inconclusive: 3.66 µM [inhibitor, full curve] | –
N#CCSc1ccccc1NC(=O)CN1C(=O)NC(CCc2ccccc2)C1=O (stereo not given) | inconclusive: 29.1 µM [inhibitor, single point] | –
Cc1cc(C)n(S(=O)(=O)/C=C/c2ccccc2)n1 | inconclusive: 25 µM [inhibitor, single point] | –
CC(=O)c1cccc(-c2ccnc3c2CC(C(=O)Nc2cccc(NS(C)(=O)=O)c2)O3)c1 (stereo not given) | inconclusive: 22.3 µM [inhibitor, single point] | –
Cc1cc(/C=C2\SC(=Nc3ccccc3)NC2=O)c(C)n1-c1ccc(S(N)(=O)=O)cc1 | inconclusive: 5.59 µM [inhibitor, partial curve] | –
CCOC(=O)c1c(-c2ccc(OC)cc2)csc1/N=C/C1C(=O)CCCC1=O | – | inactive: -18.7%
Cc1cccc(Nc2nc(N)nc(-c3oc4ccccc4c3C)n2)c1 | inconclusive: 17.7 µM [inhibitor, single point] | –
CCOc1ccc(C(=O)Nc2cc(-c3nc4ccccc4[nH]3)ccc2Cl)cc1[N+](=O)[O-] | inconclusive: 14 µM [inhibitor, single point] | –
O=c1c(O)c(-c2cccs2)oc2ccccc12 | inconclusive: 1.3 µM [inhibitor, partial curve] | –
COc1ccc(COn2c(=O)c(C)[n+]([O-])c3ccccc32)cc1OC | inconclusive: 19.8 µM [inhibitor, single point] | –
C=C(C)CNC(=S)N/N=C1\CCCCc2ccccc21 | – | inactive: -14.6%
COc1ccccc1NC(=O)Cc1ccc(-c2ccccc2)cc1 | – | inactive: -14.2%
COc1cc(/C=C2\SC(=S)N(NC(=O)c3ccc(O)c(OC)c3)C2=O)ccc1O | inconclusive: 29.1 µM [inhibitor, single point] | –
CCN1C(=O)/C(=C2/Sc3ccc(OC)cc3N2C)SC1=Nc1cccc(O)c1 | inconclusive: 25 µM [inhibitor, single point] | –
CC(=O)Oc1c(-c2ccc(Br)o2)oc2ccccc2c1=O | – | inactive: -10.4%
CC1=CC(C)(C)Nc2ccc(OC(=O)CN3C(=O)C4CCCCC4C3=O)cc21 (stereo not given) | inconclusive: 29.1 µM [inhibitor, single point] | –
COc1ccc(OC)c(-c2cc(-c3cccnc3)nc(N)c2C#N)c1 | active: 5.59 µM | –
CCOC(=O)c1sc(NC(=S)NC(=O)c2ccco2)nc1C | – | inactive: -15.3%
CCCCN(C(=O)c1ccc([N+](=O)[O-])s1)c1c(N)n(CCCC)c(=O)[nH]c1=O | – | inactive: -2.12%
O=C1CCC/C(=N/NC(=O)c2sc3ccccc3c2Cl)C1 | inconclusive: 22.3 µM [inhibitor, single point] | –
COc1nc(-c2ccccc2)cc(-c2ccc3c(c2)OCO3)c1C#N | inconclusive: 4.98 µM [inhibitor, single point] | –
COc1ccc(N/C=C/c2nc(SC)nnc2C)cc1 | inconclusive: 29.1 µM [inhibitor, single point] | –
Cc1ccc(S(=O)(=O)Nc2cc(Cl)c(O)c3ncccc23)cc1 | – | inactive: 10.1%

Compound | Potency | max response
CC(C)n1c(O)c(N=Nc2ccc(Cl)nn2)c2ccccc21 | active: 18.4 µM | –
CCOC(=O)C(=Cc1ccc(-n2ccnc2)cc1)C(=O)OCC | inconclusive: 25 µM [inhibitor, single point] | –
O=C(/C=C/c1ccc([N+](=O)[O-])o1)NNC(=O)c1ccc(F)cc1 | active: 7.9 µM | –
Nc1nc2n[nH]nc2c(=O)[nH]1 | inconclusive: 5.17 µM [inhibitor, full curve] and inconclusive: 3.96 µM [inhibitor, full curve] | –
COc1ccc(NC(=O)COC(=O)c2cc(OC)c(OC)cc2NC(=O)c2ccco2)cc1OC | – | inactive: 9.25%
C=C(C)CNC(=S)NNC(=O)c1ccco1 | – | inactive: 8.06%
CC(=O)Nc1ccc(S(=O)(=O)Nc2nc3ccccc3nc2Nc2ccc3ccccc3c2)cc1 | – | inactive: -17.6%
COc1ccc(-n2cc3c(-c4cccc(Br)c4)nnc(C)c3n2)cc1 | inconclusive: 2.59 µM [inhibitor, partial curve] | –
O=C(Nc1cc(F)cc(F)c1)c1ccc(NCCc2ccccc2)c([N+](=O)[O-])c1 | inconclusive: 23.1 µM [inhibitor, single point] | –
Fc1cccc(F)c1/C=N/NC(=S)Nc1cccnc1 | – | inactive: -2.63%
COc1cccc(CNCCSc2nnnn2C)c1OCc1ccc(F)cc1 | – | inactive: 2.02%
Cc1sc2nc(CSCC(=O)Nc3ccccc3C#N)[nH]c(=O)c2c1C | inconclusive: 23.1 µM [inhibitor, single point] | –
N#Cc1c(NC(=O)/C=C/C(=O)O)sc2c1CCN(Cc1ccccc1)C2 | inconclusive: 20.6 µM [inhibitor, single point] | –
COC(=O)c1sc2nc(CSc3ccc(Br)cc3)[nH]c(=O)c2c1C | inconclusive: 29.1 µM [inhibitor, single point] | –
C/C(CCc1ccc2c(c1)OCO2)=N\NC(=S)NC(C)C | – | inactive: 4.06%
O=C(N/N=C/c1cccc2ccccc12)c1n[nH]c2c1CCCC2 | active: 3.53 µM | –
CCOC(=O)C1=C(C)N(CC(C)C)C(=O)/C1=C\c1cccs1 | inconclusive: 18.4 µM [inhibitor, single point] | –
O=C(CCl)N1c2ccccc2Oc2ccc3ccccc3c21 | inconclusive: 7.9 µM [inhibitor, partial curve] | –
O=C1CC(c2ccccc2)Cc2[nH]c(=O)c(-c3nc(-c4cccc(Cl)c4)cs3)cc21 (stereo not given) | active: 2.59 µM | –
CC(C)(C)C(=O)/C(=C/c1ccc(Cl)cc1)n1cncn1 | inconclusive: 25 µM [inhibitor, single point] | –
COc1ccc(C(=O)Nc2cccc(/C=C/c3nc4ccccc4c(=O)[nH]3)c2)cc1 | inconclusive: 25 µM [inhibitor, single point] | –
Cc1ccc(CNc2nc3ccc(Cl)cc3n3nnnc23)cc1 | inconclusive: 29.1 µM [inhibitor, single point] | –
